The record followed here is patent US20200109190A1 (AstraZeneca / MedImmune, published 2020).

Usually Kd stands for the free concentration of one partner at which half of the binding sites on the other are occupied at equilibrium, for simple one-to-one binding. High values mean a looser complex, low ones a tighter complex. The term koff denotes the rate constant with which the complex falls apart. A low value points to a long-lived complex. One may read the kon as the second-order rate constant of association. Low values mean slower complex formation, high ones faster complex formation.

The target of experiment [1] is T1, LukSF (Staphylococcus aureus). Put plainly: cell-based or functional assay.
For experiment [2], the target named is T2, HlgAB (Staphylococcus aureus, UniProt P0A074 30-309).
T2 sequence 1: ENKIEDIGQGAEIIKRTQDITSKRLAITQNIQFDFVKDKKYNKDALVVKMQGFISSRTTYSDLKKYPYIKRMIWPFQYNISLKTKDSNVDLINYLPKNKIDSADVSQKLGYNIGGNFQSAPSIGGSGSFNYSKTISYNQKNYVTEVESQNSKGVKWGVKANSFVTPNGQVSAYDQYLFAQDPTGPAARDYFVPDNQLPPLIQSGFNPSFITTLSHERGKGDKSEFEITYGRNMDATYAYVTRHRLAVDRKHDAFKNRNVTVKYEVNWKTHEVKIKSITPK
T2 sequence 2: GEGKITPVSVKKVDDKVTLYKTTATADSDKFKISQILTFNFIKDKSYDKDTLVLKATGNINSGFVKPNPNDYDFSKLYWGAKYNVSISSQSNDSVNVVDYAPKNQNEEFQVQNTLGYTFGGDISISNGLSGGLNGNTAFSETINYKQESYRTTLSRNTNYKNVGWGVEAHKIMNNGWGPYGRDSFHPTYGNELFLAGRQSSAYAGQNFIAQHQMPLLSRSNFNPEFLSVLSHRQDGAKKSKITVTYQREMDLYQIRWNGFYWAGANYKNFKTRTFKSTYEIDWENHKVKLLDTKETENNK
Put plainly: cell-based or functional assay.

Experiment [3] deals with T1, LukSF. Put plainly: cell-based or functional assay. This is another data set of the same source.
The target in experiment [4] is T2, HlgAB. Put plainly: cell-based or functional assay. This is another data set of the same source.
The target in experiment [5] is T1, LukSF. Put plainly: cell-based or functional assay. The source holds these as a separate data set.
Experiment [6] has as its target T2, HlgAB. Put plainly: cell-based or functional assay. This is another data set of the same source.
The target in experiment [7] is T1, LukSF. Put plainly: cell-based or functional assay. This is another data set of the same source.
Experiment [8] concerns the target LukED (Staphylococcus aureus, UniProt O54081 29-314). Put plainly: cell-based or functional assay.
UniProt O54081, sequence (O54081 29-314 limits assumed): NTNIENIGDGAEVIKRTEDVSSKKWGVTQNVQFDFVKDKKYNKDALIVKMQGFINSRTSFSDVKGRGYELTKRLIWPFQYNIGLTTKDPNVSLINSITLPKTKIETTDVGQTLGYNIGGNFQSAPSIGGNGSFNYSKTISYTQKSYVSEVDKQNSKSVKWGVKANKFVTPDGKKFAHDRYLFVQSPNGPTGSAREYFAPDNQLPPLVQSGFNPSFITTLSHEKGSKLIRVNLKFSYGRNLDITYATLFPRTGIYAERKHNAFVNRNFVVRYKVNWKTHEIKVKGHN
Experiment [9] concerns the target T3, S. aureus LukF (Staphylococcus aureus). Put plainly: method not stated at Table 8; BLI (Octet) is described in Example 4.
Experiment [10] deals with T3, S. aureus LukF. The experiment is described as follows: BLI (Octet384), antibody captured on anti-human IgG Fc biosensors, antigen in solution.
The target in experiment [11] is T4, S. aureus LukD (Staphylococcus aureus, UniProt Q2FXB1 27-327).
T4 sequence: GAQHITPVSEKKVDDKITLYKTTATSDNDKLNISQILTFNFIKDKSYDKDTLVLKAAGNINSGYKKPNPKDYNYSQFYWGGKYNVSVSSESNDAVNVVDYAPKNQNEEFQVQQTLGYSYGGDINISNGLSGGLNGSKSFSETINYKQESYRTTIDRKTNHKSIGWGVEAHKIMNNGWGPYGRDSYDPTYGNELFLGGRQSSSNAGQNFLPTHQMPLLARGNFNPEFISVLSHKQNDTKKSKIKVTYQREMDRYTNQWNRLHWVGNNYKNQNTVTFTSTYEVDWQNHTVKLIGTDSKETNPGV
Described as above.

For experiment [12], the target named is T5, S. aureus HlgB (Staphylococcus aureus, UniProt P0A075 27-325).
T5 construct: also called HIgB
T5 sequence: T2 sequence 2
The experiment is described as above.

B1: SAN481 (antibody)
heavy: QLQLVESGGGAVQPGRSLKLSCAASGFNFSTYAMHWVRQAPGRGLEWVAVTSFDGSNEYYIDSVKGRFTISRDNTKNTLYLQMTGLRVEDTALYFCARDEYTGGWYSVGYWGQGTLVTVSSASTKGPSVFPLAPSSKSTSGGTAALGCLVKDYFPEPVTVSWNSGALTSGVHTFPAVLQSSGLYSLSSVVTVPSSSLGTQTYICNVNHKPSNTKVDKRV[left out - human IgG1 Fc]
light: QSVLTQPPSASGTPGQRVTISCSGNSYNIGSNSVYWYQQFPGTAPKLLISRSIQRPSGVPDRFSGSKSVTSASLAISGLRSEDEADYYCAAWDDSLRAWVFGGGTKLTVLGQPKAAPSVTLFPPSSEELQANKATLVCLISDFYPGAVTVAWKADSSPVKAGVETTTPSKQSNNKYAASSYLSLTPEQWKSHRSYSCQVTHEGSTVEKTVAPTECS
notes: also called WT
In the case of B1, the “IC50 (LukSF) HL-60” value in [1] stood at 0.16 µg/mL. Moreover, in experiment [2], the “IC50 (HIgAB) HL-60” value is 0.57 µg/mL. Further, the “IC50 for LukSF” value in experiment [3] came to 0.16 µg/mL. Further, in [4], the “IC50 for HIgAB” value was found to be 0.569 µg/mL. Moreover, in [5], the “IC50 (LukSF) HL-60; Dark sample” value turned out to be 0.16 µg/mL. The “IC50 (HIgAB) HL-60; Dark sample” value in experiment [6] came out at 0.569 µg/mL. In addition, the “IC50 (read off the curve)” value was about 0.4 µg/mL in experiment [7] and about 3 µg/mL in [8]. Further, the Kd in experiment [9] was 0.163 nM; in experiment [10], 0.0993 nM; in experiment [11], under 0.001 nM; in experiment [12] it was 0.151 nM. The koff in experiment [10] was 3.99e-05 s⁻¹; in experiment [11], under 1e-07 s⁻¹; in [12], 4.38e-05 s⁻¹. The kon was determined as 402000 M⁻¹ s⁻¹ in experiment [10], 348000 M⁻¹ s⁻¹ in [11] and 290000 M⁻¹ s⁻¹ in experiment [12].
